The text below walks through data of PubChem BioAssay (NCATS).

SMILES strings stand for the structures. This is one part of the list. The main result of the screen is listed elsewhere. These columns were measured beside it and carry no call. Compounds called inactive in the main read-out are mostly missing here. The note in brackets gives the kind of curve behind each potency; many fits are weak.
Tags describe the fitted curve by direction and shape.

One assay can be described thus: qHTS Assay for Lipid Storage Modulators (AID 1519). Particulars: Drosophila S3 cells, BODIPY lipid droplet/cell ratio, laser cytometry; measured here: cell count channel max response; cells loaded with oleic acid. Summed up: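 Cells seeded at 5,000 per well were treated with compounds over a concentration series and loaded with oleic acid (400 uM, as added). Lipid droplet fluorescence (488 nm excitation, 500-530 nm channel) was read by laser-scanning cytometry and normalized to 20 uM Triacsin C.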
Consider `O=C(Nc1ccccc1)[C@@]12C[C@@H]1/C(=N/O)c1ccccc1O2`, for which the max response came out at 86.1%.

On to `N#Cc1cccc(-c2nccc(NCc3ccccc3)n2)c1`, for which the max response was 20.4%.

As for `COCCn1c(=O)c(-c2ccc(OC)cc2)nc2cnc(Nc3ccccc3)nc21`, the max response worked out at 20.2%.

Turning to `CCNc1ncc2nc(CCc3ccccc3)c(=O)n(C3CC3)c2n1`, the max response is 16.1%.

On to `Cc1nc2cnc(N(C)C)nc2n(CCc2ccccc2)c1=O`, for which the max response turned out to be 19.2%.

For the compound `COc1ncc2nc(-c3ccc(F)cc3)c(=O)n(CCC#N)c2n1`, the max response worked out at 14.9%.

For the compound `COc1ccc2[nH]cc(CCNc3ccnc(-c4cccnc4)n3)c2c1`, the max response is 12.9%.

In the case of `COc1cc(C)c2c(=O)cc(-c3ccccc3)oc2c1`, the max response is 23.3%.

For `Cc1ccc2oc(-c3ccccc3)c(O)c(=O)c2c1`, the max response was determined as 78.8%.

For `COc1ccc2c(c1OC)C(Cc1ccccc1)N1CCc3cc4c(cc3C1C2)OCO4` (stereo not drawn), the max response was found to be 54.8%.

Consider `c1cn(-c2ccnc(-c3ccc4c(c3)OCO4)n2)cn1`, for which the max response came out at 29.6%.

As for `COc1ccc2[nH]c(-c3ccccc3)c(CCNC(C)=O)c2c1`, the max response was found to be 104%.

`CCNc1ncc2nc(CCc3ccccc3)c(=O)n(-c3ccccc3)c2n1`: the max response is 20.4%.

As for `COc1ccc(-c2nc3cnc(OC)nc3n(C3CC3)c2=O)cc1`, the max response was 15.7%.

Turning to `c1ccc2c(NCCN3CCOCC3)nc(-c3ccoc3)nc2c1`, the max response was found to be 33%.

For `O=C(O)CC/C=C\CC[C@H]1[C@@H](N2CCCCC2)[C@@H](O)C[C@@H]1OCc1ccc(-c2ccccc2)cc1`, the max response is 88.7%.

For the compound `C[C@H]1C=C2C=C[C@H](C)[C@H](CC[C@@H]3C[C@@H](O)CC(=O)O3)[C@H]2[C@@H](OC(=O)[C@@H](C)CCO)C1`, the max response was 48.8%.

With `N#CCCn1c(=O)c(-c2ccccc2)nc2cnc(Nc3ccccc3)nc21`, the max response amounted to 81.4%.

With `O=c1c(-c2ccccc2)nc2cnc(N3CCNCC3)nc2n1Cc1ccc(F)cc1`, the max response worked out at 23.3%.

With `COc1cc2c(cc1OC)C(=O)N(C)CC2`, the max response worked out at 49.9%.

Take `COc1ccc(-n2c(=O)c(CCc3ccccc3)nc3cnc(N4CCNCC4)nc32)cc1`: the max response was determined as 34%.

With `COc1cccc(-c2ccc3ncnc(NCc4cccnc4)c3c2)c1`, the max response was 5.55%.

For the compound `CN(Cc1ccco1)c1ccnc(-c2cccc(C#N)c2)n1`, the max response stood at 27.7%.

As to `CNCC(O)c1cccc(O)c1` (stereo not drawn), the max response came to 30.8%.

As to `Nc1nc2c(ncn2C2CC(O)C(CO)O2)c(=O)[nH]1` (stereo not drawn), the max response was -34.4%.

`COc1cccc(Cn2c(=O)c(-c3cn(C)c4ccccc34)nc3cncnc32)c1`: the max response turned out to be 33.4%.

As for `CC(=O)Oc1c2c(c3c(c1CC=C(C)C)O[C@@]14C(=CC5CC1C(C)(C)OC4(C/C=C(\C)C(=O)O)C5=O)C3=O)OC(C)(CCC=C(C)C)C=C2` (stereo partly drawn), the max response is -52.3%.

Take `Cc1ccc(S(=O)(=O)NCc2ccccc2)cc1`: the max response came to 84.1%.

As to `Cn1cc(-c2nc3cnc(OCc4ccccc4)nc3n(CCC#N)c2=O)c2ccccc21`, the max response came to 30.9%.

As to `C[C@@H]1CNCCN1S(=O)(=O)c1cccc2cnccc12`, the max response was determined as 94.3%.

With `CN(C)C(=O)c1ccc(-c2nccc(N(C)Cc3ccco3)n2)cc1`, the max response stood at 43.9%.

Consider `Cn1c(=O)c(-c2cccs2)nc2cnc(Oc3ccccc3)nc21`, for which the max response came to 27.6%.

Take `FC(F)(F)c1ccccc1-c1cncnc1NCc1ccccc1`: the max response was 32.9%.

For the compound `COc1ncc2nc(-c3ccc(Cl)cc3)c(=O)n(CCc3ccccc3)c2n1`, the max response is 16.6%.

Take `COc1cccc(Cn2c(=O)c(C)nc3cnc(N4CCOCC4)nc32)c1`: the max response stood at 30%.

Regarding `O=c1c(O)c(-c2ccc(O)cc2)oc2cc(O)ccc12`, the max response is -43%.

Turning to `O=c1c(CCc2ccccc2)nc2cncnc2n1C1CC1`, the max response turned out to be 32.2%.

As for `N#CCCn1c(=O)c(CCc2ccccc2)nc2cnc(Oc3cccc(Cl)c3)nc21`, the max response was determined as 10%.

Regarding `c1ccc(CNc2ncnc3ccc(-c4ccoc4)cc23)cc1`, the max response is 32.1%.

The assay is the same for the next values; noted with them: Drosophila S3 cells, BODIPY lipid droplet/cell ratio, laser cytometry; measured here: cell number channel AC50; cells loaded with oleic acid.
On to `O=C(Nc1ccccc1)[C@@]12C[C@@H]1/C(=N/O)c1ccccc1O2`, for which the AC50 is 7.08 µM [rising, partial curve].

As to `N#Cc1cccc(-c2nccc(NCc3ccccc3)n2)c1`, the AC50 was 0.355 µM [rising, full curve, poor fit].

Turning to `COCCn1c(=O)c(-c2ccc(OC)cc2)nc2cnc(Nc3ccccc3)nc21`, the AC50 was 1.12 µM [rising, partial curve].

Turning to `CCNc1ncc2nc(CCc3ccccc3)c(=O)n(C3CC3)c2n1`, the AC50 is 0.891 µM [rising, full curve].

For `Cc1nc2cnc(N(C)C)nc2n(CCc2ccccc2)c1=O`, the AC50 is 1.78 µM [rising, full curve, poor fit].

As for `COc1ncc2nc(-c3ccc(F)cc3)c(=O)n(CCC#N)c2n1`, the AC50 is 1 µM [rising, partial curve].

Consider `COc1ccc2[nH]cc(CCNc3ccnc(-c4cccnc4)n3)c2c1`, for which the AC50 was 0.0501 µM [rising, full curve, poor fit].

Take `COc1cc(C)c2c(=O)cc(-c3ccccc3)oc2c1`: the concentration at half-maximal activity (AC50) is 5.01 µM [rising, partial curve].

As for `Cc1ccc2oc(-c3ccccc3)c(O)c(=O)c2c1`, the AC50 was 15.8 µM [rising, partial curve].

Turning to `COc1ccc2c(c1OC)C(Cc1ccccc1)N1CCc3cc4c(cc3C1C2)OCO4` (stereo not drawn), the AC50 is 1.41 µM [rising, full curve].

As for `c1cn(-c2ccnc(-c3ccc4c(c3)OCO4)n2)cn1`, the AC50 is 0.141 µM [rising, full curve].

For the compound `COc1ccc2[nH]c(-c3ccccc3)c(CCNC(C)=O)c2c1`, the AC50 is 0.794 µM [rising, full curve].

For `CCNc1ncc2nc(CCc3ccccc3)c(=O)n(-c3ccccc3)c2n1`, the AC50 was 0.282 µM [rising, full curve, poor fit].

Regarding `COc1ccc(-c2nc3cnc(OC)nc3n(C3CC3)c2=O)cc1`, the AC50 is 2 µM [rising, partial curve].

For the compound `c1ccc2c(NCCN3CCOCC3)nc(-c3ccoc3)nc2c1`, the AC50 is 0.0891 µM [rising, full curve].

With `O=C(O)CC/C=C\CC[C@H]1[C@@H](N2CCCCC2)[C@@H](O)C[C@@H]1OCc1ccc(-c2ccccc2)cc1`, the concentration at half-maximal activity (AC50) is 35.5 µM [rising, partial curve, poor fit].

With `C[C@H]1C=C2C=C[C@H](C)[C@H](CC[C@@H]3C[C@@H](O)CC(=O)O3)[C@H]2[C@@H](OC(=O)[C@@H](C)CCO)C1`, the AC50 is 39.8 µM [rising, partial curve, poor fit].

Take `N#CCCn1c(=O)c(-c2ccccc2)nc2cnc(Nc3ccccc3)nc21`: the AC50 was 22.4 µM [rising, partial curve].

On to `O=c1c(-c2ccccc2)nc2cnc(N3CCNCC3)nc2n1Cc1ccc(F)cc1`, for which the AC50 is 0.01 µM [rising, full curve, poor fit].

As for `COc1cc2c(cc1OC)C(=O)N(C)CC2`, the AC50 was 35.5 µM [rising, partial curve, poor fit].

In the case of `COc1ccc(-n2c(=O)c(CCc3ccccc3)nc3cnc(N4CCNCC4)nc32)cc1`, the AC50 is 11.2 µM [rising, partial curve].

For the compound `COc1cccc(-c2ccc3ncnc(NCc4cccnc4)c3c2)c1`, the AC50 is 6.31 µM [rising, single point].

`CN(Cc1ccco1)c1ccnc(-c2cccc(C#N)c2)n1`: the concentration at half-maximal activity (AC50) is 3.55 µM [rising, partial curve].

Consider `CNCC(O)c1cccc(O)c1` (stereo not drawn), for which the AC50 was 25.1 µM [rising, partial curve, poor fit].

For the compound `Nc1nc2c(ncn2C2CC(O)C(CO)O2)c(=O)[nH]1` (stereo not drawn), the AC50 was 25.1 µM [falling, single point].

On to `COc1cccc(Cn2c(=O)c(-c3cn(C)c4ccccc34)nc3cncnc32)c1`, for which the concentration at half-maximal activity (AC50) was 0.355 µM [rising, full curve, poor fit].

On to `CC(=O)Oc1c2c(c3c(c1CC=C(C)C)O[C@@]14C(=CC5CC1C(C)(C)OC4(C/C=C(\C)C(=O)O)C5=O)C3=O)OC(C)(CCC=C(C)C)C=C2` (stereo partly drawn), for which the AC50 was 31.6 µM [falling, single point].

Regarding `Cc1ccc(S(=O)(=O)NCc2ccccc2)cc1`, the AC50 is 14.1 µM [rising, partial curve].

With `Cn1cc(-c2nc3cnc(OCc4ccccc4)nc3n(CCC#N)c2=O)c2ccccc21`, the AC50 was 2.82 µM [rising, full curve].

`C[C@@H]1CNCCN1S(=O)(=O)c1cccc2cnccc12`: the AC50 was 14.1 µM [rising, partial curve].

As to `CN(C)C(=O)c1ccc(-c2nccc(N(C)Cc3ccco3)n2)cc1`, the half-maximal activity concentration (AC50) is 14.1 µM [rising, partial curve, poor fit].

As for `Cn1c(=O)c(-c2cccs2)nc2cnc(Oc3ccccc3)nc21`, the AC50 is 1 µM [rising, partial curve].

`FC(F)(F)c1ccccc1-c1cncnc1NCc1ccccc1`: the AC50 is 12.6 µM [rising, partial curve, poor fit].

Regarding `COc1ncc2nc(-c3ccc(Cl)cc3)c(=O)n(CCc3ccccc3)c2n1`, the AC50 is 0.0708 µM [rising, full curve].

On to `COc1cccc(Cn2c(=O)c(C)nc3cnc(N4CCOCC4)nc32)c1`, for which the AC50 was 0.316 µM [rising, full curve, poor fit].

Turning to `O=c1c(O)c(-c2ccc(O)cc2)oc2cc(O)ccc12`, the AC50 was 39.8 µM [falling, single point].

For `O=c1c(CCc2ccccc2)nc2cncnc2n1C1CC1`, the AC50 was 0.447 µM [rising, full curve, poor fit].

`N#CCCn1c(=O)c(CCc2ccccc2)nc2cnc(Oc3cccc(Cl)c3)nc21`: the AC50 is 0.708 µM [rising, partial curve].

For the compound `c1ccc(CNc2ncnc3ccc(-c4ccoc4)cc23)cc1`, the AC50 was 5.62 µM [rising, full curve].
